# Publication PMC6051341, “Sequential binding of ezrin and moesin to L-selectin regulates monocyte protrusive behaviour during transendothelial migration” (Journal of Cell Science, 2018)
# B1: ezrin–RFP (natural protein, human)
# chain: [left out - about 300 residues]PDTIEVQQMKAQAREEKHQKQLERQQLETEKKRRETVEREKEQMMREKEELMLRLQDYEEKTKKAERELSEQIQRALQLEEERKRAQEEAERLEADRMAALRAKEELERQAVDQIKSQEQLAAELAEYTAKIALLEEARRRKEDEVEEWQHRAKEAQDDLVKTKEELHLVMTAPPPPPPPVYEPVSYHVQESLQDEGAEPTGYSAELSSEGIRDDRNEEKRITEAEKNERVQRQLLTLSSELSQARDENKRTHNDIIHNENMRQGRDKYKTLRQIRQGNTKQRIDEFEAL
# notes: ezrin, human, open reading frame in the pHR'SIN-SEW lentiviral vector; also called Ezr-RFP; source: THP-1 cells (ezrin-knockdown), lentiviral expression, in fixed cells; not shown: RFP, C-terminal, kept
# Target: T1, WT L-selectin–GFP (human, UniProt P14151 39-372)
# T1 construct: L-selectin, human; generated as previously described (Rzeniewicz et al., 2015); GFP on the C-terminal tail; also called L-sel-GFP; human L-selectin-GFP; source: THP-1 cells, lentiviral expression, in fixed cells; not shown: GFP, C-terminal, kept
# T1 sequence (looked up): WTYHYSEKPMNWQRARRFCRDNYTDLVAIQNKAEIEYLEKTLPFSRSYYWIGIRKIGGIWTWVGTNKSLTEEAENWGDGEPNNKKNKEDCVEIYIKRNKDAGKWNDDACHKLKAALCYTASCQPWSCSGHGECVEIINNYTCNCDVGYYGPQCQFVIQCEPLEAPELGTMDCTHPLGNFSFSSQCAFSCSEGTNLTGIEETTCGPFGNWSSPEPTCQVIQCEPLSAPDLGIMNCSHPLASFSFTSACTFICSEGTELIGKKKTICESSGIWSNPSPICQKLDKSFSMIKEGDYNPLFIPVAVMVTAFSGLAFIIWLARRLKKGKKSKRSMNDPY
# Assay: FRET or BRET; FLIM measurement of FRET between GFP (donor, on L-selectin) and RFP (on the ERM protein); unchallenged THP-1 cells seeded onto poly-L-lysine-coated coverslips for 10 min at 37°C, fixed
# Conditions: partners not purified
binder,measurement,value
B1,fold FRET efficiency against moesin with the same L-selectin (unchallenged cells),1.7 fold
